Reference: paper PMC5722342
These are yes or no findings as the source states them, for the method shown. In cells and extracts the contact can be indirect. Some results given as binding are weak or reduced against the parent protein; the word gives no strength.

Sequences of proteins named here, by UniProt entry; tags and fusion partners are left off.
UniProt Q7Z434: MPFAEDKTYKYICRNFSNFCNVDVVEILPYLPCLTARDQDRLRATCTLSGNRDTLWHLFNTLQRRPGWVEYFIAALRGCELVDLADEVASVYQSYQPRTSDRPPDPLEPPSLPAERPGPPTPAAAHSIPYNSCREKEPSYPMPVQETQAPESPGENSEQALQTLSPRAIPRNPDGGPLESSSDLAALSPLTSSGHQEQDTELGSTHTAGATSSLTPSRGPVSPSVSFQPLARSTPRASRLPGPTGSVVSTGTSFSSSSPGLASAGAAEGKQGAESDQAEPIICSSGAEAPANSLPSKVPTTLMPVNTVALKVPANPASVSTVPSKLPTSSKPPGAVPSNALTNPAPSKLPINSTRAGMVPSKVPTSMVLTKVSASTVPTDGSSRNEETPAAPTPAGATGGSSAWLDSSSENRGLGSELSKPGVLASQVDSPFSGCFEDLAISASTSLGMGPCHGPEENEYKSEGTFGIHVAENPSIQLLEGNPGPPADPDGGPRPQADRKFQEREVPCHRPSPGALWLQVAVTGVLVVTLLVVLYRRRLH

Columns and labels:
Test in all cases: co-IP; HEK293 cells transfected with the indicated plasmids; NP-40 lysis buffer (20 mM Tris-HCl pH 7.4, 150 mM NaCl, 1 mM EDTA, 1% Nonidet P-40); immunoprecipitation and immunoblot with the indicated antibodies (Fig 4A, 4C)
RIG-I = molecular target: T1, RIG-I (UniProt O95786)
T1 sequence: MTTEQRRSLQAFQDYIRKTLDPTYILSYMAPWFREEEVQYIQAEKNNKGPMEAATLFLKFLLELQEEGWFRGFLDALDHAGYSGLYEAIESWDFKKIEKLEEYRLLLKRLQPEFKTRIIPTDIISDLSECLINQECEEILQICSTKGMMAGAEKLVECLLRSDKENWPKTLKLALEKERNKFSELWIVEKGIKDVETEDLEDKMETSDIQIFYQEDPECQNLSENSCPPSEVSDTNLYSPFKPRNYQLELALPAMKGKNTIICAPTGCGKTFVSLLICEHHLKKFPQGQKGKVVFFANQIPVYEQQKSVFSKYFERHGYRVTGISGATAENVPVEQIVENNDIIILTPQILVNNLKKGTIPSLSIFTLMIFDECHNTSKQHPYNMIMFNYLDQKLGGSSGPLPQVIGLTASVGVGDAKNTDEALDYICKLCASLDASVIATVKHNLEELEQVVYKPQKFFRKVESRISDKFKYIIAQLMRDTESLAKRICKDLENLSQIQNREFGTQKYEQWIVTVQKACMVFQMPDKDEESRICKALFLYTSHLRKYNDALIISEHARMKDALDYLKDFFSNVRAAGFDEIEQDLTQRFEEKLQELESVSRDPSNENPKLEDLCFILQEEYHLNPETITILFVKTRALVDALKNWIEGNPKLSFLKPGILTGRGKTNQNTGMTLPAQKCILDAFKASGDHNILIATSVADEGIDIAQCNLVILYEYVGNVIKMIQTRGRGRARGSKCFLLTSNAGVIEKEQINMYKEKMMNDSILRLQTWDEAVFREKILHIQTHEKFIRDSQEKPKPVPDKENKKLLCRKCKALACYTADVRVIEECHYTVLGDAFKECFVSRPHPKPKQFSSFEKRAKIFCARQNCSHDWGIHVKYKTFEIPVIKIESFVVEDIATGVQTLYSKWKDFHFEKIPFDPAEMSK

IRF3 = molecular target: T2, IRF3 (UniProt Q14653)
T2 sequence: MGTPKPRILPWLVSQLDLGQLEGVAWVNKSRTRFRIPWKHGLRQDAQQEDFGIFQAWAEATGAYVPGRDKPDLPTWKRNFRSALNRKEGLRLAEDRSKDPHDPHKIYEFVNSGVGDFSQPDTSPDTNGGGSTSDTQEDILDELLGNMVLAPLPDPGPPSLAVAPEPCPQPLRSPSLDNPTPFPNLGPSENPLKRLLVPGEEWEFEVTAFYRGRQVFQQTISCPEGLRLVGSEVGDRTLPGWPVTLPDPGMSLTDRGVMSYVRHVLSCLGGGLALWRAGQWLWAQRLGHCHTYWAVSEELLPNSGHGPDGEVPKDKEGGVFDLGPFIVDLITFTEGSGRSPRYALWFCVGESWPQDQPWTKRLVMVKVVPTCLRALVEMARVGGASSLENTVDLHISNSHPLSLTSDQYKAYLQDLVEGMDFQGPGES

VISA = VISA (UniProt Q7Z434)
MDA5 = molecular target: T3, MDA5 (UniProt Q9BYX4)
T3 sequence: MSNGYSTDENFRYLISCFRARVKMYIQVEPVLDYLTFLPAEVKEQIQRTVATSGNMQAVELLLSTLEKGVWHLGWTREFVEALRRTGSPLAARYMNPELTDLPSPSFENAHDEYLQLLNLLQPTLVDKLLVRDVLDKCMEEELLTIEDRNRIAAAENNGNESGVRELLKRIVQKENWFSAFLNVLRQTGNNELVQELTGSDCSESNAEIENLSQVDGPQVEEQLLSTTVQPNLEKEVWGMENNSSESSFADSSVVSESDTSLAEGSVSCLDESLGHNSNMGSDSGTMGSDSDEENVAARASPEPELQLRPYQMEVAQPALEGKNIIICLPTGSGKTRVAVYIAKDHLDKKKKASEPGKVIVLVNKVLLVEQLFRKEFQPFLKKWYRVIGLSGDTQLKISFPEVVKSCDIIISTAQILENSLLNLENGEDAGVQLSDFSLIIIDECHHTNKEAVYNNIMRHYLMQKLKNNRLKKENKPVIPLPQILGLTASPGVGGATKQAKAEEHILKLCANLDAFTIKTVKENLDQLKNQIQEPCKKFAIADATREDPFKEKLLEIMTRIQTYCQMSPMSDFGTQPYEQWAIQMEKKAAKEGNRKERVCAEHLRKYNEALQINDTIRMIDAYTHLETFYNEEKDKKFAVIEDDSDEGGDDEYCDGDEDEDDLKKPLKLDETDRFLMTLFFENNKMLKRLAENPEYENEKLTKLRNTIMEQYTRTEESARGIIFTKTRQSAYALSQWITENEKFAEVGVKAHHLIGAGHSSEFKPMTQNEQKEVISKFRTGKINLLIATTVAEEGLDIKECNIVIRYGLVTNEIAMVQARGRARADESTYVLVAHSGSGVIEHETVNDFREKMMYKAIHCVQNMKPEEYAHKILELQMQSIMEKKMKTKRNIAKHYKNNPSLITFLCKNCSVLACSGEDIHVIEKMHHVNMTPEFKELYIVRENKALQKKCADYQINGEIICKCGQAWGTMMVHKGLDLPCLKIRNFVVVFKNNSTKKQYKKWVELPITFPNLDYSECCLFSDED

B1: inactive rhomboid protein 2 (iRhom2) (protein, UniProt Q6PJF5 1-856)
chain: MASADKNGGSVSSVSSSRLQSRKPPNLSITIPPPEKETQAPGEQDSMLPEGFQNRRLKKSQPRTWAAHTTACPPSFLPKRKNPAYLKSVSLQEPRSRWQESSEKRPGFRRQASLSQSIRKGAAQWFGVSGDWEGQRQQWQRRSLHHCSMRYGRLKASCQRDLELPSQEAPSFQGTESPKPCKMPKIVDPLARGRAFRHPEEMDRPHAPHPPLTPGVLSLTSFTSVRSGYSHLPRRKRMSVAHMSLQAAAALLKGRSVLDATGQRCRVVKRSFAFPSFLEEDVVDGADTFDSSFFSKEEMSSMPDDVFESPPLSASYFRGIPHSASPVSPDGVQIPLKEYGRAPVPGPRRGKRIASKVKHFAFDRKKRHYGLGVVGNWLNRSYRRSISSTVQRQLESFDSHRPYFTYWLTFVHVIITLLVICTYGIAPVGFAQHVTTQLVLRNKGVYESVKYIQQENFWVGPSSIDLIHLGAKFSPCIRKDGQIEQLVLRERDLERDSGCCVQNDHSGCIQTQRKDCSETLATFVKWQDDTGPPMDKSDLGQKRTSGAVCHQDPRTCEEPASSGAHIWPDDITKWPICTEQARSNHTGFLHMDCEIKGRPCCIGTKGSCEITTREYCEFMHGYFHEEATLCSQVHCLDKVCGLLPFLNPEVPDQFYRLWLSLFLHAGVVHCLVSVVFQMTILRDLEKLAGWHRIAIIFILSGITGNLASAIFLPYRAEVGPAGSQFGLLACLFVELFQSWPLLERPWKAFLNLSAIVLFLFICGLLPWIDNIAHIFGFLSGLLLAFAFLPYITFGTSDKYRKRALILVSLLAFAGLFAALVLWLYIYPINWPWIEHLTCFPFTSRFCEKYELDQVLH
binding (RIG-I): no binding
binding (IRF3): no binding
binding (VISA): binds
binding (MDA5): no binding
